A short description of assay [1]: NCI Yeast Anticancer Drug Screen. Data for the cln2 rad14 strain (AID 165).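 Further: 0% = growth equal to vehicle treated cultures.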 Particulars: S. cerevisiae cln2 rad14 strain, at 50.0 µM, stronger effect = higher value.
A short description of assay [2]: NCI Yeast Anticancer Drug Screen. Data for the mlh1 rad18 strain (AID 175). Conditions: S. cerevisiae mlh1 rad18 strain growth inhibition; at 50.0 µM; stronger effect = higher value.
A short description of assay [3]: NCI Yeast Anticancer Drug Screen. Data for the rad50 strain (AID 155).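 Further: 0% = growth of vehicle-only cultures of the same strain.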 Conditions: S. cerevisiae rad50 strain growth inhibition; at 50.0 µM; stronger effect = higher value.
The nature of assay [4]: NCI Yeast Anticancer Drug Screen. Data for the mec2-1 strain (AID 157). Conditions: S. cerevisiae mec2-1 strain, at 50.0 µM, stronger effect = higher value.
Assay [5] in a line: NCI Yeast Anticancer Drug Screen. Data for the sgs1 mgt1 strain (AID 161).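 Further: 0% = growth of cultures given vehicle only.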 Particulars: S. cerevisiae sgs1 mgt1 strain, at 50.0 µM, stronger effect = higher value.
Assay [6] can be described thus: NCI Yeast Anticancer Drug Screen. Data for the bub3 strain (AID 167). Conditions: S. cerevisiae bub3 mutant strain, at 50.0 µM, stronger effect = higher value.

Some entries of the source have several records that differ or are many. The list is limited to them. No stated cut-off is given here; in the data, active means growth inhibition above about 70%; inactive means the rest. There may be further records. Values given together repeat one measurement in other runs, samples, wells, individuals or studies. Additions like (4×) give the number of equal values in this list. A structure can be active in one record and inactive in another. Where a SMILES comes first, the peptide text is derived from it. [ ]: non-standard residue; d: D form. ξ: configuration not given here. ξI = CCC(C)C(N)C(=O)O

For the molecule `COc1nc2nc(C(O)C(O)CO)cnc2c(=O)n1C` (centres undefined), the growth inhibition entry in assay [1] was “inactive: 31.4, 5.2, 25.1, 34.5% [separate samples]”; in assay [2], “inactive: -25.6, -2.45, 0.55, 7.85% [separate samples]”.

For the molecule `COc1cccc2c1C(=O)c1c(O)c3c(c(O)c1C2=O)CC(O)(C(C)=O)CC3OC1CC(N)C(O)C(C)O1` (centres undefined), the growth inhibition result in assay [3] is “inactive: 60.3, -2.25, 3.35, 26.1, -9.4% [separate samples]”; in assay [4] it was “inactive: 27.7, 16.4, -14.8, 4.1, -35% [separate samples]”; in assay [5], “inactive: 35.5, 5.3, -29.1, -14.4, -19.3% [separate samples]”; in assay [1], “inactive: 39, 8.3, -17.6, -8.35, -19.8% [separate samples]”; in assay [6] it was “inactive: 27.6, 2.85, -27.4, -27.9, -25.8% [separate samples]”; in assay [2], “inactive: 33.2, 0.2, -55.6, -50.2, -40.5% [separate samples]”.

On to `COc1nc(N)c(NC2OCC(O)C(O)C2O)c(=O)n1C` (centres undefined), for which the growth inhibition entry in assay [4] was “inactive: -67.8, -50, -30.1, -14.6, -26.3% [separate samples]”; in assay [5], “inactive: -73.8, -69.2, -42.5, -25.9, -35.7% [separate samples]”; in assay [1], “inactive: -16.2, -2.3, 4.55, -18.7, 25% [separate samples]”; in assay [6], “inactive: -37.8, -35.2, -13.1 (2×), -8.25% [separate samples]”; in assay [2], “inactive: -53, -35.4, -31.2, -52.6, -27.1% [separate samples]”.

For `CC(C)C(N)C(=O)NC(C(=O)NC(C(=O)O)C(C)C)C(C)C` (centres undefined), the growth inhibition result is “inactive: -10.1 (2×), 26.8, -10.8, -17.6, -12.6% [separate samples]” in assay [1] and “inactive: -20.9, -10.8, -41.6, -27.9, -8.7, -9.15% [separate samples]” in assay [2].

For `CCC(C)C(NC(=O)CN)C(=O)O` (centres undefined) (H-Gly-[ξI]-OH), the growth inhibition result in assay [5] was “inactive: 21.4, 2.35, -5.15, -6.85% [separate samples]”; in assay [1], “inactive: -69.1, -77.1, -36.7, -47.8% [separate samples]”; in assay [6], “inactive: -20.2, -14.2, 20.6, -3.1% [separate samples]”.

For `NCCCC(=O)O`, the growth inhibition entry in assay [4] was “inactive: -6.3, -9.3, -24.6, 1.2% [separate samples]”; in assay [5], “inactive: 6, -16.2, -49.3, -28.7% [separate samples]”; in assay [2], “inactive: -23.6, 1.55, -36.4, 3.3% [separate samples]”.

Take `O=C(OC1COC(OC(=O)c2ccccc2)C(OC(=O)c2ccccc2)C1OC(=O)c1ccccc1)c1ccccc1` (centres undefined): the growth inhibition result in assay [6] is “inactive: -2.65, 18.6, 13.4, 35% [separate samples]”.

In the case of `OCC(O)C(O)C(O)C(O)C(/C=N/Nc1ccccc1)=N/Nc1ccccc1` (centres undefined), the growth inhibition entry in assay [3] was “inactive: -5.75%, 41.3%, -3.95% and active: 94.7% [separate samples]”; in assay [4], “inactive: 6.15%, 39.3%, 15.6% and active: 73.8% [separate samples]”; in assay [5], “inactive: 30.4, 42.9, 36.2, 2.15% [separate samples]”; in assay [1], “inactive: -4.2%, -1.55%, -22% and active: 95.1% [separate samples]”; in assay [6], “inactive: 35.5%, 16.9%, -2.7% and active: 77.7% [separate samples]”; in assay [2] it was “inactive: 27.4%, 59.4%, 30.1% and active: 93.8% [separate samples]”.

For `COC1OC2COC(c3ccccc3)OC2C2OC12` (centres undefined), the growth inhibition result in assay [5] was “inactive: 5.05, 1.25, -2.45, -38.5% [separate samples]”.

Turning to `OC1C(O)C(O)C(O)C(O)C1O` (centres undefined), the growth inhibition entry in assay [3] was “inactive: -5.9, -0.25, 17.5, 0.85, -13.8% [separate samples]”; in assay [4] it was “inactive: 7.05, -26.1, 4.2, -8.95, -16.7% [separate samples]”; in assay [5], “inactive: -15.2, -26.9, 10.2, -12.5, -14.1% [separate samples]”; in assay [1] it was “inactive: -7.15, -26.8, 3.7, -5.75, -24.9% [separate samples]”.

As to `CC(C)C(N)C(=O)O` (centres undefined), the growth inhibition entry in assay [3] is “inactive: -6.75, -0.65, -4.65, 0.15, -29.6% [separate samples]”; in assay [4], “inactive: -5.35, 2.95, -8.8, 14.9, -17.6% [separate samples]”; in assay [5], “inactive: -8.45, -2.8, 2.35, 19.2, -24.9% [separate samples]”; in assay [1], “inactive: -21.8, 4.5, 9.95, 10.1, -16.7% [separate samples]”; in assay [6], “inactive: -26.8, 3.7, -19.4, 16.4, -23.7% [separate samples]”; in assay [2], “inactive: -43, -3.7, -11.8, 4.65, -13.6% [separate samples]”.

The values are drawn from PubChem BioAssay (NCI).
